Changes are numbered by the printed parent chain. No constants are given. Whether binding was seen depends on the method and setting. Binding seen in cells or lysates may run through a third protein. Some results given as binding are weak or reduced against the parent protein; the word gives no strength. Tags and fused reporters may be left off the sequences shown.
Experiments:
Experiment in all cases: pull-down; purified GST-tagged Ncoa7 TLDc domain (775–943), WT or mutants, as baits; kidney lysate as prey; anti-B1 and anti-GST western blots; repeated three times; only the target purified
[1] = target: T1, GST-tagged E938A mutant of the TLDc domain of Ncoa7 (775–943) (UniProt Q6DFV7)
T1 sequence: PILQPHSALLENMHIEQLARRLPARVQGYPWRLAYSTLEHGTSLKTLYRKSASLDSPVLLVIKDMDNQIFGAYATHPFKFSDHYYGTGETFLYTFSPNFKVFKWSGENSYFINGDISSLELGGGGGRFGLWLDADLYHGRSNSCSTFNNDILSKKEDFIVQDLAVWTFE

Sequences of proteins named here, by UniProt entry; tags and fusion partners are left off.
UniProt Q91YH6: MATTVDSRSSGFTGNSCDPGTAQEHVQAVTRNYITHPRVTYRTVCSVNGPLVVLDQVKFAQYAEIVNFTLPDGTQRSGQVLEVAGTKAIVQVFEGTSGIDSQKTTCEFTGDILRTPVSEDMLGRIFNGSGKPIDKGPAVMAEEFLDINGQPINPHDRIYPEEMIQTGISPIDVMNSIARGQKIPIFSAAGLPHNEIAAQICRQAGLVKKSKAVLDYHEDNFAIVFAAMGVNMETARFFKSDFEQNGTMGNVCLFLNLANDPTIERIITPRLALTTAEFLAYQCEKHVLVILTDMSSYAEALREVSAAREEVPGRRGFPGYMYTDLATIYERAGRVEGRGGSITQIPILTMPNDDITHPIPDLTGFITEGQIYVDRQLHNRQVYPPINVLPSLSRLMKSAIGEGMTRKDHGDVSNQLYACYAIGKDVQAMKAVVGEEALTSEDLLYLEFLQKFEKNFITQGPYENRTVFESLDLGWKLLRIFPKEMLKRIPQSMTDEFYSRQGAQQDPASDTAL

[2] = target: T2, GST-tagged G802A mutant of the TLDc domain of Ncoa7 (775–943) (UniProt Q6DFV7)
T2 sequence: T1 sequence with G28A, A164E

[3] = target: T3, GST-tagged G815A mutant of the TLDc domain of Ncoa7 (775–943) (UniProt Q6DFV7)
T3 sequence: T1 sequence with G41A, A164E

[4] = target: T4, GST-tagged G845A mutant of the TLDc domain of Ncoa7 (775–943) (UniProt Q6DFV7)
T4 sequence: T1 sequence with G71A, A164E

[5] = target: T5, GST-tagged G896A mutant of the TLDc domain of Ncoa7 (775–943) (UniProt Q6DFV7)
T5 sequence: T1 sequence with G122A, A164E

[6] = target: T6, GST-tagged L926A mutant of the TLDc domain of Ncoa7 (775–943) (UniProt Q6DFV7)
T6 sequence: T1 sequence with L152A, A164E

[7] = target: T7, GST-tagged S817A mutant of the TLDc domain of Ncoa7 (775–943) (UniProt Q6DFV7)
T7 sequence: T1 sequence with S43A, A164E

[8] = target: T8, GST-tagged wild-type (WT) TLDc domain of Ncoa7 (775–943) (UniProt Q6DFV7)
T8 sequence: T1 sequence with A164E

B1 subunit of V-ATPase (from UniProt Q91YH6 1-513)
binding [1]: binds
binding [2]: binds
binding [3]: no binding
binding [4]: no binding
binding [5]: no binding
binding [6]: binds
binding [7]: binds
binding [8]: binds

From PMC8633271
